# Hit rate of the full screen: of about 280,000 compounds, about 100 (0.036%) were called active. Inconclusive results, whose numbers are uncertain, are shown with a selection of clear calls. Calls come from the whole dose curve; as a rule, active = well fitted inhibition curve with a large enough effect in the signal ratio, with a control signal flat (not every such curve was filed as active); inconclusive = small, poorly fitted or top-dose-only effect, or effect the other way, or a change in a side signal; inactive = no such curve, though single readings can be large or run the other way; the % refers to the signal ratio. Potencies of inconclusive entries are doubtful fits and often do not repeat. A note “side channel” means that the fit belongs to a control or component signal, not to the main read-out.
# Biological target: Muscleblind-like protein 1 (Homo sapiens) (UniProt Q9NR56)
# Assay: qHTS Assay for Inhibitors of MBNL1-poly(CUG) RNA binding
# Conditions: TR-FRET MBNL1-His/biotin-(CUG)12 binding, 665/545 ratio; series mostly up to 57.5 µM
# Outline: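 Compounds (final 92 nM to 58 uM) are added to His-tagged MBNL1 and biotin-(CUG)12, then terbium anti-His antibody and streptavidin-XL665 (5 nM final). After 60 min at room temperature, the 665/545 nm ratio is read.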
# Potency is the fitted concentration of half-maximal effect; tags give direction and shape of the fitted curve or compound fluorescence and quenching.
# Sequence of UniProt Q9NR56 (Q9NR56 whole entry, looked up): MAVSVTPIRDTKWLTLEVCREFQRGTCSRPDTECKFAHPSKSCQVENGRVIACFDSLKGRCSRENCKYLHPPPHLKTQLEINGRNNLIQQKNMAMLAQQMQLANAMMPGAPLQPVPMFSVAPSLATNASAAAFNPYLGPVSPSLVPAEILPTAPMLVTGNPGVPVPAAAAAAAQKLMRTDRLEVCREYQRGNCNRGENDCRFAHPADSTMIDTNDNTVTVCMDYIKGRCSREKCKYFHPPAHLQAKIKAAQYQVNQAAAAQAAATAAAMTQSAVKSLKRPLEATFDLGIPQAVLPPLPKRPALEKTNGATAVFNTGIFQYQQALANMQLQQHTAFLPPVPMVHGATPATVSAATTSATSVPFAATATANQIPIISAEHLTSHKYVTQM
row,SMILES,Potency
1,CCOC(=O)CN1C(=O)S/C(=C/c2ccc(C)o2)C1=O,"inconclusive: 25.1 µM [quencher, side channel, partial curve]"
2,Cc1cc(C)c2c(N)c(C(=O)Nc3ncc(C)s3)sc2n1,"inconclusive: 8.91 µM [quencher, side channel, full curve, poor fit]"
3,CC1(C)Oc2cc(N)c([N+](=O)[O-])cc2O1,"inconclusive: 12.6 µM [quencher, side channel, partial curve]"
4,O=C(NCCCNc1ccc([N+](=O)[O-])cc1Cl)c1ccccc1F,"inconclusive: 25.1 µM [quencher, single point]"
5,Cc1ccc(CN2CCN(/N=C/c3ccc(C(=O)O)cc3)CC2)cc1,inactive
6,CCOC(=O)N1CCN(c2c(N3CCN(c4cccc(C(F)(F)F)c4)CC3)c(=O)c2=O)CC1,"inconclusive: 5.62 µM [quencher, side channel, single point]"
7,Cc1ccc(NC(=O)COC(=O)CNC(=O)c2cccc([N+](=O)[O-])c2)cc1S(=O)(=O)N1CCCCCC1,"inconclusive: 10 µM [quencher, side channel, single point]"
8,O=[N+]([O-])c1ccccc1Nc1nc(-c2cccnc2)cs1,"inconclusive: 7.08 µM [quencher, side channel, partial curve]"
9,COC(=O)/C(C#N)=C/c1c(N2CCN(C)CC2)nc2ccccn2c1=O,"inconclusive: 17.8 µM [quencher, side channel, partial curve]"
10,O=C(Nc1ccc(-c2nc3ccccc3o2)cc1)c1ccc2c(c1)OCO2,inactive
11,O=C(CCCN1C(=O)/C(=C/c2ccc(F)cc2)SC1=S)NC1CCS(=O)(=O)C1 (stereo not given),"inconclusive: 12.6 µM [quencher, side channel, partial curve]"
12,COc1ccc(-c2noc(CCCC(=O)NC3CCCCC3)n2)cc1,inactive
13,CC1(C)Cc2c(c(-c3ccco3)nc3sc4c(NCCN5CCOCC5)ncnc4c23)CO1,inactive
14,COc1ccc(C(=O)CCC(=O)N2CCN(c3ccc([N+](=O)[O-])cc3)CC2)cc1,"inconclusive: 11.2 µM [quencher, side channel, partial curve]"
15,Cc1nc2nc(-c3ccccc3)cn2nc1C,"inconclusive: 10 µM [quencher, side channel, partial curve]"
16,COc1cccc(C(=O)NCCSCc2c(F)cccc2Cl)c1,inactive
17,CCN1C(=O)C(=Cc2cccc(OC)c2Oc2ccc([N+](=O)[O-])cc2[N+](=O)[O-])SC1=S,"inconclusive: 4.47 µM [quencher, side channel, partial curve]"
18,c1ccc(-c2nc3cc4ccccc4cc3[nH]2)nc1,"inconclusive: 17.8 µM [quencher, side channel, single point]"
19,CCN(CC)c1ccc(/C=N/n2c(C)cc(C)cc2=O)cc1,"inconclusive: 11.2 µM [quencher, side channel, partial curve]"
20,Nc1ccccc1-c1nnc2n1CCCCC2,inactive

row,SMILES,Potency
1,O=C1CSC(c2ccc([N+](=O)[O-])cc2)N1C1CCCCC1 (stereo not given),"inconclusive: 20 µM [quencher, side channel, partial curve]"
2,CCN(CC)S(=O)(=O)c1ccc(C(C)NC(=O)Cc2c[nH]c3ccccc23)cc1 (stereo not given),inactive
3,C=CCSc1nc(=O)n2cccc(C)c2n1,"inconclusive: 3.98 µM [quencher, side channel, single point]"
4,O=C(CSc1nnc(-c2cnccn2)n1Cc1ccco1)c1ccc2ccccc2c1,"inconclusive: 39.8 µM [quencher, single point]"
5,COc1ccc(C2=NCCNC(C(F)(F)F)=C2)cc1,"inconclusive: 22.4 µM [quencher, side channel, single point]"
6,CCCCNC(=S)NCc1ccc2[nH]c(C)cc2c1,inactive
7,CCOc1ccc(N2CC(C(=O)NCc3ccc(F)cc3)CC2=O)cc1 (stereo not given),"inconclusive: 8.91 µM [quencher, side channel, partial curve]"
8,COc1ccc([N+](=O)[O-])cc1NC(=O)CCN1CCOCC1,"inconclusive: 31.6 µM [quencher, single point]"
9,Fc1cccc(Cl)c1CSc1ccc2nnc(-c3ccccn3)n2n1,"inconclusive: 31.6 µM [fluorescent, side channel, single point]"
10,Cc1ccc(-n2nnc3c(=O)n(Cc4cccc(C)c4)cnc32)cc1,"inconclusive: 0.631 µM [quencher, side channel, single point]"
11,NC(=O)CC(NC(=O)c1ccccc1)c1ccc(NC2CCN(Cc3ccccc3)CC2)c([N+](=O)[O-])c1 (stereo not given),"inconclusive: 12.6 µM [quencher, side channel, partial curve]"
12,S=c1[nH]nc(-c2ccc(Cl)cc2Cl)n1Cc1ccccc1,inactive
13,CCOC(=O)c1c(NC(=O)CSc2nc3ccccc3c(=O)n2-c2ccccc2)sc(C(C)=O)c1C,"inconclusive: 12.6 µM [fluorescent, side channel, partial curve]"
14,CC(C)(C)N1C(=O)c2ccc(C(=O)NCc3ccco3)cc2C1=O,"inconclusive: 20 µM [quencher, side channel, partial curve]"
15,NC(=O)CSc1nnc(-c2cccc(S(=O)(=O)N3CCOCC3)c2)n1C1CCCCCC1,inactive
16,COC(=O)CCSc1cc([N+](=O)[O-])cc2c1c(C1OCCS1)nn2-c1ccccc1 (stereo not given),"inconclusive: 15.8 µM [quencher, side channel, partial curve]"
17,CC1CC(=S)Nc2ccccc2S1 (stereo not given),inactive
18,CC1=NN(c2ccc(Br)cc2)C(=O)/C1=C/c1cccs1,inactive
19,CCSc1ncc(Cl)c(C(=O)Nc2ccc(S(N)(=O)=O)cc2)n1,"inconclusive: 22.4 µM [quencher, side channel, partial curve, poor fit]"
20,CCn1c(=O)c([N+](=O)[O-])c(NC2CCS(=O)(=O)C2)c2ccccc21 (stereo not given),"inconclusive: 28.2 µM [quencher, side channel, single point]"
